# Reference: PMC4336329 (PLoS ONE, 2015)
# The whole screen tested about 310,000 compounds, of which about 2,200 (0.71%) showed an effect of 50% or more. Effects have a minus sign here. Some of the results follow.
# Biological target: human ether-à-go-go-related gene (hERG) potassium channel (human, UniProt Q12809)
# Assay: primary screen, population patch clamp on CHO cells stably expressing hERG
# Chain of human ether-à-go-go-related gene (hERG) potassium channel (Q12809 whole entry, looked up): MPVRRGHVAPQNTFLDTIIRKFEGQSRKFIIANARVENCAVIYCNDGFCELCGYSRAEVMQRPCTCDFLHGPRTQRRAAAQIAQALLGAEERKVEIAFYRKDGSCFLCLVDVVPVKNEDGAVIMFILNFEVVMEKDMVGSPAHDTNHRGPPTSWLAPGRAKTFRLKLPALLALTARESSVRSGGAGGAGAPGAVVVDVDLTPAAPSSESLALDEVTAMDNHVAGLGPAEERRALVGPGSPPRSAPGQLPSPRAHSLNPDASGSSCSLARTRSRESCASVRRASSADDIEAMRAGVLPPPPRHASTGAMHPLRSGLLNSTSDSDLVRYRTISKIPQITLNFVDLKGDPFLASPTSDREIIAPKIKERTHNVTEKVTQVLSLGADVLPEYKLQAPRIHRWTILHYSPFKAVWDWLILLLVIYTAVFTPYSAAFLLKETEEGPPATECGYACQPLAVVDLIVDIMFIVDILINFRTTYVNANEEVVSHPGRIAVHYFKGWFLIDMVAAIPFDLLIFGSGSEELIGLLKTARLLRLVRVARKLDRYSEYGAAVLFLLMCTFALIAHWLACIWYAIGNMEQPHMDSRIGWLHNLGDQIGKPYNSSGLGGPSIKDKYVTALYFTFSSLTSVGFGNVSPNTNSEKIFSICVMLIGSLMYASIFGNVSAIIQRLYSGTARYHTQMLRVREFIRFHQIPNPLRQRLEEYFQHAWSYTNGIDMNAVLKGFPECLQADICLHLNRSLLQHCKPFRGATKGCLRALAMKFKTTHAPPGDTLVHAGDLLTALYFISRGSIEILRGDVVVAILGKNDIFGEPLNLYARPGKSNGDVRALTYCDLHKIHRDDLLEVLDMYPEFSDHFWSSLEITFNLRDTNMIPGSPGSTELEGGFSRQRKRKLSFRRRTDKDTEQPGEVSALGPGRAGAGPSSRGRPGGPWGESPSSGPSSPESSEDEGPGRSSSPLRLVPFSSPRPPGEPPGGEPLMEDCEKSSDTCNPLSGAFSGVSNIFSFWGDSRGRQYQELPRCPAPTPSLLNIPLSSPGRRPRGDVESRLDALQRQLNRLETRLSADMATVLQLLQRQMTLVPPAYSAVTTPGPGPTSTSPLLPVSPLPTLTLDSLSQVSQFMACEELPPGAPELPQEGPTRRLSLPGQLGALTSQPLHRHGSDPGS
row,Structure (SMILES),"hERG current change (%, negative = inhibition) at 1uM [%]"
1,O=C1C(=O)N(CCN2CCOCC2)C(c2ccc(F)cc2)/C1=C(/O)c1ccc(S(=O)(=O)N2CCOCC2)cc1 (stereo not shown),20.6
2,O=C(COc1cnc2ccccc2n1)NCCC1=CCCCC1,15.8
3,CCN(C(=O)CSc1nc2nc(C)cc(C)n2n1)C1CCS(=O)(=O)C1 (stereo not shown),8.63
4,Cn1cnnc1SCc1ccccc1[N+](=O)[O-],14.8
5,COc1ccc(OC)c(CNC(=O)C2CCN(C(=O)N(C)C)CC2)c1,12.7
6,CC(C)(C)c1nnc(NC(=O)CN2C(=O)C3C4C=CC(C4)C3C2=O)s1 (stereo not shown),11.7
7,CCN1CCN(CC(=O)NC2CCCCC2)C(=O)C1=O,15.8
8,CCc1noc(C)c1C(=O)OCC(=O)Nc1nc(-c2ccc(F)c(F)c2)cs1,-2.7
9,CCCCSc1nnc(-c2ccc(OC)cc2)n1C,0.236
10,CCOc1cc(CNCc2ccc(C(=O)O)cc2)ccc1OC.Cl,11.8
11,O=C(Cc1cccc2ccccc12)N/N=C/c1ccc(Sc2nc3ccccc3s2)o1,19
12,CC(C)(C)OC(=O)N1CCC[C@H]1C(=O)OCC(=O)Nc1cc(S(C)(=O)=O)ccc1Cl,5.59
13,Cl.FC(F)(F)c1cc(CO[C@@H]2CCCN[C@@H]2c2ccccc2)cc(C(F)(F)F)c1,14.6
14,COc1ccc(C(O)Cc2nc3ccccc3n2C)cc1OC (stereo not shown),16.3
15,CN(C)S(=O)(=O)c1ccc(Cl)c(NC(=O)CN2C(=O)NC(C)(C3CC3)C2=O)c1 (stereo not shown),4.05
16,O=C(CSc1nncc2ccccc12)Nc1ccc(C(=O)O)cc1,7.16
17,Cc1ccc(-c2csc3ncnc(N4CCN(S(=O)(=O)c5cccs5)CC4)c23)cc1,10.7
18,O=C(Nc1cc(Cl)ccc1N1CCCCC1)c1cccs1,2.38
19,COC(=O)c1nn(-c2ccccc2)c(Cl)c1/C=N/OC(=O)c1ccc(Cl)c(Cl)c1,13.6
20,O=C(CCCCCCN1C(=O)c2ccccc2C1=O)Nc1nccs1,16.2
21,Cc1ccc(Cl)c(OCC(=O)Nc2ccc(S(=O)(=O)NC3=NCCCCC3)cc2)c1,33.7
22,CCCN(CC1CC1)C(=S)NC(=O)c1ccccc1Br,1.43
23,Cc1ccc(NC(=O)NC2CCN(CC(=O)Nc3nccs3)CC2)cc1,2.68
24,CCOC(=O)C1=C(C)N(CCCC(=O)O)C(=O)NC1c1ccccc1OS(=O)(=O)c1ccc([N+](=O)[O-])cc1 (stereo not shown),17.8
25,CS(=O)(=O)NN1C(=O)c2ccccc2NC1c1cccs1 (stereo not shown),9.6
26,Cc1nc2ccc(-c3nc4ccc(N)cc4[nH]3)cc2[nH]1,6.93
27,COCCn1nnnc1C(c1cc2cc(C)ccc2[nH]c1=O)N1CCCCCC1 (stereo not shown),7.19
28,CCOC(=O)N1CCC(N(C(=O)Nc2cccc(OC)c2)C(C)CC)CC1 (stereo not shown),4.63

row,Structure (SMILES),"hERG current change (%, negative = inhibition) at 1uM [%]"
1,O=C(CC(c1ccccc1)c1ccccc1O)NCCc1ccccc1 (stereo not shown),20.2
2,C=CCOc1ccc(C=Nc2ccc(Cl)cc2)c(O)c1,14.6
3,CC1CC(C)CN(C(=O)COc2ccc(-c3nnco3)cc2)C1 (stereo not shown),8.39
4,COc1ccc(/C(C)=N\n2cnnc2)cc1,10.6
5,O=C(CCNC(=O)c1ccc(Br)cc1)NCCCSc1ccccc1,-1.43
6,CC1=C(C(N)=O)C(c2ccccc2)n2nc(-c3cccc(C)c3)nc2N1 (stereo not shown),-29.2
7,Cc1ccc(C(=O)OCC(=O)N(CC(C)C)c2c(N)n(Cc3ccccc3)c(=O)[nH]c2=O)o1,5.54
8,CN(C)S(=O)(=O)c1ccc(NC(=O)COc2ncnc3sccc23)cc1,3.56
9,CCS(=O)(=O)c1ccc2c(c1)N(S(C)(=O)=O)CC(C(=O)NCc1ccccc1OC)O2 (stereo not shown),3.2
10,C=CCn1c(SCc2nc3ccccc3[nH]2)nnc1-c1ccccn1,-10.9
11,Cc1cc(NC(=O)COn2nnc3ccc(Cl)cc32)no1,4.24
12,Cc1ccc(NC(=O)CO/N=C/c2ccccc2C)c(C)c1,7.21
13,CCN1C(=O)CC(NCc2ccc(S(N)(=O)=O)cc2)C1=O (stereo not shown),19.5
14,CCCCCCC(=O)Nc1nc(C)c(-c2csc(Nc3ccc(Cl)cc3)n2)s1,11.8
15,O=C(Cc1cccs1)N1CCN(S(=O)(=O)c2ccc(F)cc2)CC1,11.1
16,CCCOc1ccc(N2C(=O)CC(N3CCN(CCN=CC4=C(O)CC(C)(C)CC4=O)CC3)C2=O)cc1 (stereo not shown),-4.68
17,C=CCOc1ccc(C2/C(=C(/O)c3ccc(OC)cc3)C(=O)C(=O)N2CCN2CCNCC2)cc1 (stereo not shown),7.98
18,COC(=O)CNC(c1ccccc1)c1cc(C)ccc1NC(=O)c1cccc(Cl)c1 (stereo not shown),-4.69
19,CC(=O)N1CCN(C(=O)CC2OC(=O)c3ccccc32)CC1 (stereo not shown),11.4
20,CCc1cccc(Nc2cnn(C34C[C@@H]5C[C@@H](CC(CC(=O)O)(C5)C3)C4)c(=O)c2Cl)c1,15.3
21,Cc1ccc(CNC(=O)COc2ccc(S(=O)(=O)NC(C)C)cc2)cc1,7.14
22,N#Cc1cccc(C(=O)OCC(=O)NCc2ccco2)c1,13.5
23,O=C1NC(=O)/C(=C\c2ccc(OCc3cccc([N+](=O)[O-])c3)cc2)N1,11.3
24,Cc1ccc(-c2nnn(CC(=O)N3c4ccccc4CCc4ccccc43)n2)cc1,7.38
25,CCOc1ccccc1NC(=O)NC1(C(=O)N2CCN3CCCC3C2)CCCCC1 (stereo not shown),9.04
26,CC(=O)c1cccc(NC(=S)NNC(=O)c2ccc(C)c([N+](=O)[O-])c2)c1,15
27,O=C1Nc2ccccc2C1(O)c1ccccc1 (stereo not shown),13.5
